For some of these results: Shown are results outside the selection of strong results, which stands elsewhere. The entries are a selection whose mix differs from that of the whole data set.

For one assay, the target named is Ribosomal protein S6 kinase alpha-6 (Homo sapiens) (UniProt Q9UK32). To be noted: at 1 µM.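 Also: each value is a mean inhibition of RSK4 from a GSK PKIS panel screen.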
UniProt Q9UK32, sequence (Q9UK32 whole entry): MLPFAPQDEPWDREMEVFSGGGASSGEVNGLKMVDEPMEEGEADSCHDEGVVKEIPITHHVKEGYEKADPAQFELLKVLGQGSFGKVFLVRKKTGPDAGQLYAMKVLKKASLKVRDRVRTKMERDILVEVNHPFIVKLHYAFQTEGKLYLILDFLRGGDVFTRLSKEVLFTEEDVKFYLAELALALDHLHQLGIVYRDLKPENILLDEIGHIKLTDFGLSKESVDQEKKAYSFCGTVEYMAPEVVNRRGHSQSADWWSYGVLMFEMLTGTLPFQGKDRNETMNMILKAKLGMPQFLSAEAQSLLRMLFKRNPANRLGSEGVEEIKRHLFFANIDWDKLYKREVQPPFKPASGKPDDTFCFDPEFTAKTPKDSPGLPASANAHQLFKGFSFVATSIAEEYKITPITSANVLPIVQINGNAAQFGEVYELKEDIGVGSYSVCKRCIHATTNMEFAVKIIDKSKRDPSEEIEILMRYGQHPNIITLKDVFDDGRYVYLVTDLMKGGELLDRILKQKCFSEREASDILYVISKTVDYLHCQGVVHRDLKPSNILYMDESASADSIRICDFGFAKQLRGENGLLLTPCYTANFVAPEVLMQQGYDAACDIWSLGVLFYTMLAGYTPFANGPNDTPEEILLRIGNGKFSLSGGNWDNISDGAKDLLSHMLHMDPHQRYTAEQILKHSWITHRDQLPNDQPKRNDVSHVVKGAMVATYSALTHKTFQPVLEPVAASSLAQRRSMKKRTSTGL
What is called inhibition is the drop in the measured response relative to a control, in per cent. As for `CS(=O)(=O)c1ccc(Oc2nccc(-c3c(-c4ccc(F)cc4)ncn3C3CCNCC3)n2)cc1`, the inhibition was 0.45%.

Consider `O=C1NC(=O)C(c2ccccc2Cl)=C1Nc1cc(Cl)c(O)c(Cl)c1`, for which the inhibition turned out to be 0.63%.

Take `CC(C)(C)c1ccc(Oc2nccc(-c3c(-c4ccc(F)cc4)ncn3C3CCNCC3)n2)cc1`: the inhibition was 0.57%.

For the molecule `COc1ccccc1Oc1nccc(-c2c(-c3ccc(F)cc3)ncn2C2CCNCC2)n1`, the inhibition was 1.52%.

Regarding `Fc1ccc(-c2ncn(C3CCNCC3)c2-c2ccnc(Oc3ccc(Cl)cc3)n2)cc1`, the inhibition came to 0.04%.

Consider `O=C1NC(=O)C(c2ccccc2)=C1Nc1ccccc1`, for which the inhibition worked out at 9.47%.

With `NC(=O)CCc1ccccc1Oc1nccc(-c2c(-c3ccc(F)cc3)ncn2C2CCNCC2)n1`, the inhibition came out at 0.12%.

`O=C(O)c1ccc(Oc2nccc(-c3c(-c4ccc(F)cc4)ncn3C3CCNCC3)n2)cc1`: the inhibition was found to be 1.86%.

As to `Fc1ccc(-c2ncn(C3CCNCC3)c2-c2ccnc(Oc3cccc(C(F)(F)F)c3)n2)cc1`, the inhibition was 0.63%.

With `Fc1ccc(Oc2nccc(-c3c(-c4ccc(F)cc4)ncn3C3CCNCC3)n2)cc1`, the inhibition worked out at 0.39%.

In the case of `O=C1NC(=O)C(c2cccc([N+](=O)[O-])c2)=C1Nc1cc(Cl)c(O)c(Cl)c1`, the inhibition was 11.2%.

Turning to `COc1ccccc1C1=C(Nc2ccccc2)C(=O)NC1=O`, the inhibition is 11.1%.

On to `Cc1cccc(Oc2nccc(-c3c(-c4ccc(F)cc4)ncn3C3CCNCC3)n2)c1C`, for which the inhibition is 0.92%.

On to `Fc1ccc(-c2ncn(C3CCNCC3)c2-c2ccnc(Oc3cccc(F)c3)n2)cc1`, for which the inhibition was found to be 2.84%.

Another assay concerns the target T1, Serine/threonine-protein kinase Sgk1 (Homo sapiens) (UniProt O00141).
T1 sequence (whole entry): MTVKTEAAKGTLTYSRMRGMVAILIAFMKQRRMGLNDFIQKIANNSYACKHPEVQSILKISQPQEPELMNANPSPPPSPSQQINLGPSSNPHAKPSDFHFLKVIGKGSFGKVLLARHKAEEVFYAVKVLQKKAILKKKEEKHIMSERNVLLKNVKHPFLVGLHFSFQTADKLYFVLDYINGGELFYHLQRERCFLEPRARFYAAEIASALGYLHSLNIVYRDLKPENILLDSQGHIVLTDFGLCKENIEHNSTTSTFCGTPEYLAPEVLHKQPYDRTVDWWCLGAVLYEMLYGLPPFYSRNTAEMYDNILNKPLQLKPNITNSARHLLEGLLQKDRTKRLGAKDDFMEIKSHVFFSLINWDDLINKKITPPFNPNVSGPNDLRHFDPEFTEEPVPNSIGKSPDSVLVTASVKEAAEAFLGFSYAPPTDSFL
As to conditions: at 0.1 µM.
As to `CS(=O)(=O)c1ccc(Oc2nccc(-c3c(-c4ccc(F)cc4)ncn3C3CCNCC3)n2)cc1`, the inhibition was determined as 3.75%.

Consider `O=C1NC(=O)C(c2ccccc2Cl)=C1Nc1cc(Cl)c(O)c(Cl)c1`, for which the inhibition stood at 2.07%.

Turning to `CC(C)(C)c1ccc(Oc2nccc(-c3c(-c4ccc(F)cc4)ncn3C3CCNCC3)n2)cc1`, the inhibition is 1.84%.

Take `COc1ccccc1Oc1nccc(-c2c(-c3ccc(F)cc3)ncn2C2CCNCC2)n1`: the inhibition is 3.66%.

Consider `Fc1ccc(-c2ncn(C3CCNCC3)c2-c2ccnc(Oc3ccc(Cl)cc3)n2)cc1`, for which the inhibition was determined as 1.68%.

As to `O=C1NC(=O)C(c2ccccc2)=C1Nc1ccccc1`, the inhibition was 4.37%.

Consider `NC(=O)CCc1ccccc1Oc1nccc(-c2c(-c3ccc(F)cc3)ncn2C2CCNCC2)n1`, for which the inhibition was 1.87%.

Turning to `O=C(O)c1ccc(Oc2nccc(-c3c(-c4ccc(F)cc4)ncn3C3CCNCC3)n2)cc1`, the inhibition came out at 1.16%.

As for `Fc1ccc(-c2ncn(C3CCNCC3)c2-c2ccnc(Oc3cccc(C(F)(F)F)c3)n2)cc1`, the inhibition worked out at 4.08%.

For `Fc1ccc(Oc2nccc(-c3c(-c4ccc(F)cc4)ncn3C3CCNCC3)n2)cc1`, the inhibition turned out to be 1.63%.

As to `O=C1NC(=O)C(c2cccc([N+](=O)[O-])c2)=C1Nc1cc(Cl)c(O)c(Cl)c1`, the inhibition worked out at 1.37%.

Regarding `COc1ccccc1C1=C(Nc2ccccc2)C(=O)NC1=O`, the inhibition was 1.69%.

As for `Cc1cccc(Oc2nccc(-c3c(-c4ccc(F)cc4)ncn3C3CCNCC3)n2)c1C`, the inhibition came to 2.84%.

For the molecule `Fc1ccc(-c2ncn(C3CCNCC3)c2-c2ccnc(Oc3cccc(F)c3)n2)cc1`, the inhibition was 2.23%.

The target of a further assay is T1, Serine/threonine-protein kinase Sgk1 (Homo sapiens). To be noted: at 1 µM.
Take `CS(=O)(=O)c1ccc(Oc2nccc(-c3c(-c4ccc(F)cc4)ncn3C3CCNCC3)n2)cc1`: the inhibition is 2.04%.

As for `O=C1NC(=O)C(c2ccccc2Cl)=C1Nc1cc(Cl)c(O)c(Cl)c1`, the inhibition was 5.19%.

For the molecule `CC(C)(C)c1ccc(Oc2nccc(-c3c(-c4ccc(F)cc4)ncn3C3CCNCC3)n2)cc1`, the inhibition is 1.38%.

With `Fc1ccc(-c2ncn(C3CCNCC3)c2-c2ccnc(Oc3ccc(Cl)cc3)n2)cc1`, the inhibition is 0.8%.

As to `O=C1NC(=O)C(c2ccccc2)=C1Nc1ccccc1`, the inhibition stood at 6.27%.

`NC(=O)CCc1ccccc1Oc1nccc(-c2c(-c3ccc(F)cc3)ncn2C2CCNCC2)n1`: the inhibition was determined as 0.47%.

In the case of `O=C(O)c1ccc(Oc2nccc(-c3c(-c4ccc(F)cc4)ncn3C3CCNCC3)n2)cc1`, the inhibition was found to be 2.81%.

Take `Fc1ccc(-c2ncn(C3CCNCC3)c2-c2ccnc(Oc3cccc(C(F)(F)F)c3)n2)cc1`: the inhibition is 3.32%.

As for `Fc1ccc(Oc2nccc(-c3c(-c4ccc(F)cc4)ncn3C3CCNCC3)n2)cc1`, the inhibition is 0.85%.

In the case of `O=C1NC(=O)C(c2cccc([N+](=O)[O-])c2)=C1Nc1cc(Cl)c(O)c(Cl)c1`, the inhibition was found to be 0.49%.

With `COc1ccccc1C1=C(Nc2ccccc2)C(=O)NC1=O`, the inhibition was found to be 3.01%.

On to `Cc1cccc(Oc2nccc(-c3c(-c4ccc(F)cc4)ncn3C3CCNCC3)n2)c1C`, for which the inhibition amounted to 3.03%.

Consider `Fc1ccc(-c2ncn(C3CCNCC3)c2-c2ccnc(Oc3cccc(F)c3)n2)cc1`, for which the inhibition came out at 3.62%.

The next assay has as its target T2, Serine/threonine-protein kinase Sgk2 (Homo sapiens) (UniProt Q9HBY8).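 Also: each value is a mean percent inhibition of SGK2 from the GSK PKIS kinase screen.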
T2 sequence (whole entry): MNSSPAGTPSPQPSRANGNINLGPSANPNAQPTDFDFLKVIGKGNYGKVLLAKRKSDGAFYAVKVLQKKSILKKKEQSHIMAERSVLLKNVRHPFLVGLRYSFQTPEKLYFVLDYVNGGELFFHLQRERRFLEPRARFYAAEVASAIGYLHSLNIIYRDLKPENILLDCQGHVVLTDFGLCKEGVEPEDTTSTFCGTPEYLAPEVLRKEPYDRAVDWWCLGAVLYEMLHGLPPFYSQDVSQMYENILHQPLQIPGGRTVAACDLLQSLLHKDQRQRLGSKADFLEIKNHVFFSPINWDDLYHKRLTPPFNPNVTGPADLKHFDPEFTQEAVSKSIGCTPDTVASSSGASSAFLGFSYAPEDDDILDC
To be noted: at 0.1 µM.
For `CS(=O)(=O)c1ccc(Oc2nccc(-c3c(-c4ccc(F)cc4)ncn3C3CCNCC3)n2)cc1`, the inhibition came to 3.31%.

With `O=C1NC(=O)C(c2ccccc2Cl)=C1Nc1cc(Cl)c(O)c(Cl)c1`, the inhibition is 3%.

On to `CC(C)(C)c1ccc(Oc2nccc(-c3c(-c4ccc(F)cc4)ncn3C3CCNCC3)n2)cc1`, for which the inhibition was -0.53%.

Regarding `COc1ccccc1Oc1nccc(-c2c(-c3ccc(F)cc3)ncn2C2CCNCC2)n1`, the inhibition is 2.63%.

For `Fc1ccc(-c2ncn(C3CCNCC3)c2-c2ccnc(Oc3ccc(Cl)cc3)n2)cc1`, the inhibition is 0.37%.

Consider `O=C1NC(=O)C(c2ccccc2)=C1Nc1ccccc1`, for which the inhibition is 3.66%.

Consider `NC(=O)CCc1ccccc1Oc1nccc(-c2c(-c3ccc(F)cc3)ncn2C2CCNCC2)n1`, for which the inhibition was 1.07%.

For `O=C(O)c1ccc(Oc2nccc(-c3c(-c4ccc(F)cc4)ncn3C3CCNCC3)n2)cc1`, the inhibition was found to be 3.28%.

In the case of `Fc1ccc(-c2ncn(C3CCNCC3)c2-c2ccnc(Oc3cccc(C(F)(F)F)c3)n2)cc1`, the inhibition came out at 2.14%.

For `Fc1ccc(Oc2nccc(-c3c(-c4ccc(F)cc4)ncn3C3CCNCC3)n2)cc1`, the inhibition amounted to 2.32%.

For the molecule `O=C1NC(=O)C(c2cccc([N+](=O)[O-])c2)=C1Nc1cc(Cl)c(O)c(Cl)c1`, the inhibition came to 2.32%.

`COc1ccccc1C1=C(Nc2ccccc2)C(=O)NC1=O`: the inhibition is 0.36%.

On to `Cc1cccc(Oc2nccc(-c3c(-c4ccc(F)cc4)ncn3C3CCNCC3)n2)c1C`, for which the inhibition worked out at 1.23%.

Take `Fc1ccc(-c2ncn(C3CCNCC3)c2-c2ccnc(Oc3cccc(F)c3)n2)cc1`: the inhibition turned out to be 4%.

Source of the values: ChEMBL document CHEMBL1961873, “Compounds: GSK PKIS; Assays: Nanosyn kinase panel” (2012).
